PubChem BioAssay AID652106 (National Center for Advancing Translational Sciences (NCATS), 2013)
Out of some 370,000 compounds screened, about 500 (0.14%) were called active. The shares of active, inactive and inconclusive entries below differ from those in the screen. The call rests on the fitted dose curve; in most records, active means well fitted activation curve with a large enough effect; inconclusive means small, poorly fitted or top-dose-only effect; inactive means no such curve, though single readings can be large or run the other way. A potency beside an inconclusive call is a rough fit, not a confirmed value.

Test: qHTS of alpha-syn Inhibitors; further: nearly all actives have a fitted effect of over 65% in size; on growth rescue (activation): % of control where 0% means no effect
Conditions: Yeast expressing alpha-synuclein, BacTiter-Glo, 24 h; Potency: growth rescue unless noted; growth rescue (activation): at 46.1 µM (top of the series) unless noted
In short: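 Galactose-induced alpha-syn yeast (OD600=0.02, raffinose-pregrown) + pinned cpd, 24 hr, 30 deg C; growth by BacTiter-Glo luminescence. Growth restoration scores as activation.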
Potency means the concentration at half of the fitted maximal effect; tags describe the fitted curve by direction and shape.

Potency, inconclusive:
CC1(C(=O)NC2CCCCCC2)CCN1C(=O)Cc1ccc(-c2ccccc2)cc1 (stereo not given) 31.6 µM [activator, single point]
Cc1cc2nc(C)n3c4ccccc4nc3n2n1 22.4 µM [activator, single point]
O=C(N/N=C/c1cc(Br)cc(Br)c1O)c1ccncc1 28.2 µM [activator, single point]
CC(C)C1C(=O)N(Cc2cn(Cc3ccco3)nn2)CCS(=O)(=O)N1Cc1ccc(-c2ccc(Cl)cc2)cc1 (stereo not given) 35.5 µM [activator, single point]
COc1ccccc1/C=C/C(=O)OCCN1C(=O)c2ccccc2C1=O 22.4 µM [activator, single point]
CC(=O)c1c(C)oc(C)c1CSCc1ccc(C(=O)O)o1 22.4 µM [activator, single point]
Cn1c(COc2ccc(Cl)cc2)nnc1SCc1ncc(-c2ccccc2)o1 31.6 µM [activator, single point]
COc1cccc(-c2nnc(NC(=O)c3ccc(Cl)s3)o2)c1 7.94 µM [activator, partial curve]
CCCCn1nnnc1C1(C)CCC(=O)N1Cc1ccc(OC)cc1 (stereo not given) 5.62 µM [activator, single point]
NC(=S)Nn1c(-c2ccccc2)nc2ccccc2c1=O 5.62 µM [activator, single point]
C=C1C(=O)C2=CC1CCC(=O)C1(C)CCC(OC(C)=O)C(C)(C)C1CC2O (stereo not given) 35.5 µM [activator, single point]
COC(=O)CC1CC2(C(=O)OC)c3[nH]c4ccccc4c3CCN2C1=O (stereo not given) 35.5 µM [activator, single point]
O=C(NCCc1nnc2ccc(NCc3ccccc3Cl)nn12)c1ccccc1 5.01 µM [activator, single point]

Growth rescue (activation), inactive:
O=C(Cc1ccc(Br)cc1)N1CCN(C(=O)c2ccccc2)CC1 1.08%
CCN1CCCC1CNC(=O)c1ccc(N2CCCC2=O)cc1 (stereo not given) -1.31%
Cc1ccc(-c2cc(C(F)F)nc(NCc3cccs3)n2)cc1 2.69%
CNC(=O)c1ccsc1NC(=O)c1sc2ccccc2c1Cl -4.6%
COc1ccccc1NC(=O)c1ccc(NC(=O)CN2CCCCC2)cc1 1.47%
CCOc1ccc(OCCC(=O)NNC(=O)c2ccncc2)cc1 26.5%

Growth rescue (activation), inconclusive:
O=[N+]([O-])/C=C/c1ccc2c(ccn2Cc2ccccc2)c1 -57.4% [activator]
